The target in assay [1] is T1, human NTCP (Homo sapiens, UniProt Q14973).
T1 sequence (Q14973 1-349): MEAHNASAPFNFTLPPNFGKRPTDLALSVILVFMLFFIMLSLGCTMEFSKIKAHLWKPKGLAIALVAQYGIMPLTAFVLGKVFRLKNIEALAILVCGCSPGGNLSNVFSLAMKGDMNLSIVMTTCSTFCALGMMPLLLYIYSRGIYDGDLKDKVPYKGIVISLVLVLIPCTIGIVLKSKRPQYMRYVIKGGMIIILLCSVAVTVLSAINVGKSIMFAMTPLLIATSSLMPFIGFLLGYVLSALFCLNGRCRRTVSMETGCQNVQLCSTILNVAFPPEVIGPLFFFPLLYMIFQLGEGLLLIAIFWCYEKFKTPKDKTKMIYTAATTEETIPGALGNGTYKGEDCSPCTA
In words: Screening taurocholate uptake assay (96-well, [14C]taurocholate, 10 µM drug). The settings on record: for remaining activity at 10 µM: 10 min, read-out: %NTCP activity.

Assay [2] concerns the target T1, human NTCP. In words: Screening fluorescent competitive Myrcludex B-FITC binding assay (96-well, 10 µM drug).
[3] abbreviates: screen, 10 µM drug, Myrcludex B-FITC binding.
Setting [4] is: Prestwick library screen, 10 µM drug, Myrcludex B-FITC binding.
[5] abbreviates: 0.5 h, read-out: %NTCP binding, screen, 10 µM drug, Myrcludex B-FITC binding.
[6] abbreviates: Prestwick library screen, 10 µM drug, [14C]taurocholate uptake.

Structures are written as SMILES. Structures can show the parent of a compound that is named as a salt. Where two headings read alike, the source gives them in different places.

`C[C@]1(Cn2ccnn2)[C@H](C(=O)O)N2C(=O)C[C@H]2S1(=O)=O` [Tazobactam]: the remaining activity at 10 µM in assay [1] is 87.9%; in assay [2] (0.5 h, read-out: %NTCP binding) it was 78.3%.
Regarding `O=c1[nH]c(=O)n(C2CCCO2)cc1F` (stereo not shown) [Tegafur], the remaining activity at 10 µM in assay [1] came out at 78%; in assay [2] (0.5 h, read-out: %NTCP binding), 71.6%.
The like results for `[H]/N=C(/NCCCCC)N/N=C/c1c[nH]c2ccc(OC)cc12` [Tegaserod maleate] were, in that order, 97.6% and 89%.
For `Cc1scc2c1N(C(=O)CN1CCN(C)CC1)c1ccccc1NC2=O` [Telenzepine dihydrochloride], the remaining activity at 10 µM came to 103% in assay [1] and 82.2% in assay [2] (0.5 h, read-out: %NTCP binding).
For the molecule `Cn1nnc2c(C(N)=O)ncn2c1=O` [Temozolomide], the remaining activity at 10 µM is 119% in assay [1] and 90.1% in assay [2] (0.5 h, read-out: %NTCP binding).
Taken in the same sequence, the figures for `COc1ccc2[nH]c([S+]([O-])Cc3ncc(C)c(OC)c3C)nc2n1` (stereo not shown) [Tenatoprazole] were 108% and 67.2%.
With `COc1cc2nc(N3CCN(C(=O)C4CCCO4)CC3)nc(N)c2cc1OC` (stereo not shown) [Terazosin hydrochloride], the remaining activity at 10 µM in assay [1] was found to be 89.1%; in assay [2] (0.5 h, read-out: %NTCP binding), 85.9%.
For the molecule `CN(C/C=C/C#CC(C)(C)C)Cc1cccc2ccccc12` [Terbinafine], the remaining activity at 10 µM was 111% in assay [1] and 57% in assay [2] (0.5 h, read-out: %NTCP binding).
On to `CC(C)(C)NCC(O)c1cc(O)cc(O)c1.CC(C)(C)NCC(O)c1cc(O)cc(O)c1.O=S(=O)(O)O` (stereo not shown) [Terbutaline hemisulfate], for which the “%NTCP activity” value in assay [1] (screen, 10 µM drug, [14C]taurocholate uptake) came out at 161.561%. In assay [2] (setting [3]), the “%NTCP binding” value amounted to 53.337%.
Regarding `CC(C)N1CCN(c2ccc(OCC3COC(Cn4cncn4)(c4ccc(Cl)cc4Cl)O3)cc2)CC1` (stereo not shown) [Terconazole], the remaining activity at 10 µM worked out at 41% in assay [1] and 74.9% in assay [2] (0.5 h, read-out: %NTCP binding).
Taken in the same sequence, the figures for `CCC(=O)O[C@H]1CC[C@H]2[C@@H]3CCC4=CC(=O)CC[C@]4(C)[C@H]3CC[C@]12C` [Testosterone propionate] were 88.3% and 57.6%.
Consider `CCCCNc1ccc(C(=O)OCCN(C)C)cc1.Cl` [Tetracaïne hydrochloride], for which, in assay [1], the “%NTCP activity” value is listed as 103.395%. The “%NTCP binding” value in assay [2] (setting [4]) is listed as 90.0944%.
Regarding `CN(C)[C@@H]1C(O)=C(C(N)=O)C(=O)[C@@]2(O)C(O)=C3C(=O)c4c(O)cccc4[C@@](C)(O)[C@H]3C[C@@H]12` [Tetracycline hydrochloride], the remaining activity at 10 µM stood at 73% in assay [1] and 81.8% in assay [2] (0.5 h, read-out: %NTCP binding).
The like results for `c1ccc2c(c1)CCCC2C1=NCCN1` (stereo not shown) [Tetrahydrozoline hydrochloride] were, in that order, 88.5% and 90.2%.
Taken in the same sequence, the figures for `O=C1CCC(N2C(=O)c3ccccc3C2=O)C(=O)N1` (stereo not shown) [Thalidomide] were 122% and 85.3%.
For the molecule `Cn1cnc2c1c(=O)[nH]c(=O)n2C` [Theobromine], the remaining activity at 10 µM in assay [1] was found to be 94.5%; in assay [2] (0.5 h, read-out: %NTCP binding), 85.1%.
For `Cn1c(=O)c2[nH]cnc2n(C)c1=O` [Theophylline monohydrate], the remaining activity at 10 µM in assay [1] was found to be 87.9%; in assay [2] (setting [5]) it was 76.7%.
As for `CS(=O)(=O)c1ccc([C@@H](O)[C@@H](CO)NC(=O)C(Cl)Cl)cc1` [Thiamphenicol], the remaining activity at 10 µM in assay [1] came to 84%; in assay [2] (0.5 h, read-out: %NTCP binding), 108%.
For the molecule `CCSc1ccc2c(c1)N(CCCN1CCN(C)CC1)c1ccccc1S2.O=C(O)CC(O)C(=O)O.O=C(O)CC(O)C(=O)O` [Thiethylperazine dimalate], the “%NTCP activity” value in assay [1] (setting [6]) was determined as 122.125%. In addition, the “%NTCP binding” value in assay [2] (setting [4]) is 117.903%.
For the molecule `Nc1nc(=S)c2ncn([C@@H]3O[C@H](CO)[C@@H](O)[C@H]3O)c2[nH]1` [Thioguanosine], the remaining activity at 10 µM turned out to be 71.7% in assay [1] and 75% in assay [2] (0.5 h, read-out: %NTCP binding).
As to `S=C(NC1CCCCC1)N1CCC(c2cnc[nH]2)CC1` [Thioperamide maleate], the remaining activity at 10 µM in assay [1] turned out to be 59.4%; in assay [2] (setting [5]), 91.2%.
In the case of `CN1CCN(CCCN2c3ccccc3Sc3ccc(S(=O)(=O)N(C)C)cc32)CC1.CS(=O)(=O)O.CS(=O)(=O)O` [Thioproperazine dimesylate], the “%NTCP activity” value in assay [1] (setting [6]) is listed as 107.536%. Also, the “%NTCP binding” value in assay [2] (setting [4]) turned out to be 93.2041%.
Consider `O=C(O)CNC(=O)C(CS)Cc1ccccc1` (stereo not shown) [Thiorphan], for which the remaining activity at 10 µM in assay [1] was 119%; in assay [2] (0.5 h, read-out: %NTCP binding), 83.5%.
With `N[C@@H](Cc1cc(I)c(Oc2cc(I)c(O)c(I)c2)c(I)c1)C(=O)O` [Thyroxine (L)], the “%NTCP activity” value in assay [1] worked out at 54.8973%. Moreover, in assay [2] (setting [3]), the “%NTCP binding” value turned out to be 51.9567%.
Take `c1ccc2[nH]c(-c3cscn3)nc2c1` [Tiabendazole]: the remaining activity at 10 µM is 61.9% in assay [1] and 81.2% in assay [2] (0.5 h, read-out: %NTCP binding).
As for `CCN(CC)CCNC(=O)c1cc(S(C)(=O)=O)ccc1OC` [Tiapride hydrochloride], the remaining activity at 10 µM is 131% in assay [1] and 44.4% in assay [2] (0.5 h, read-out: %NTCP binding).
Taken in the same sequence, the figures for `CC(C(=O)O)c1ccc(C(=O)c2ccccc2)s1` (stereo not shown) [Tiaprofenic acid] were 20.9% and 84.5%.
Regarding `C#C[C@]1(O)CC[C@H]2[C@@H]3[C@H](C)CC4=C(CCC(=O)C4)[C@H]3CC[C@@]21C` [Tibolone], the remaining activity at 10 µM is 96.1% in assay [1] and 59.5% in assay [2] (0.5 h, read-out: %NTCP binding, Prestwick library screen, 10 µM drug, Myrcludex B-FITC binding).
For `CC(C)(C)NC[C@H](O)COc1nsnc1N1CCOCC1.O=C(O)/C=C\C(=O)O` [Timolol maleate salt], in assay [1] (setting [6]), the “%NTCP activity” value was 71.1626%. In assay [2] (setting [4]), the “%NTCP binding” value stood at 83.6828%.
Turning to `CCS(=O)(=O)CCn1c([N+](=O)[O-])cnc1C` [Tinidazole], the remaining activity at 10 µM was 85.5% in assay [1] and 90.4% in assay [2] (0.5 h, read-out: %NTCP binding).
Taken in the same sequence, the figures for `NC[C@H]1O[C@H](O[C@H]2[C@H](O)[C@@H](O[C@H]3O[C@H](CO)[C@@H](O)[C@H](N)[C@H]3O)[C@H](N)C[C@@H]2N)[C@H](N)C[C@@H]1O` [Tobramycin] were 70.8% and 79.4%.
The like results for `Cc1cccc(C)c1NC(=O)C(C)N` (stereo not shown) [Tocainide hydrochloride] were, in that order, 92.7% and 107%.
Regarding `Cc1ccc(S(=O)(=O)NC(=O)NN2CCCCCC2)cc1` [Tolazamide], the remaining activity at 10 µM worked out at 52.7% in assay [1] and 79.8% in assay [2] (0.5 h, read-out: %NTCP binding).
Taken in the same sequence, the figures for `c1ccc(CC2=NCCN2)cc1` [Tolazoline hydrochloride] were 125% and 106%.
Taken in the same sequence, the figures for `CCCCNC(=O)NS(=O)(=O)c1ccc(C)cc1` [Tolbutamide] were 112% and 63.4%.
Turning to `Cc1ccc(C(=O)c2cc(O)c(O)c([N+](=O)[O-])c2)cc1` [Tolcapone], the remaining activity at 10 µM amounted to 70.6% in assay [1] and 88.5% in assay [2] (0.5 h, read-out: %NTCP binding).
As for `Cc1ccc(C(=O)c2ccc(CC(=O)O)n2C)cc1` [Tolmetin sodium salt dihydrate], the remaining activity at 10 µM is 119% in assay [1] and 106% in assay [2] (0.5 h, read-out: %NTCP binding).
Taken in the same sequence, the figures for `Cc1cccc(N(C)C(=S)Oc2ccc3ccccc3c2)c1` [Tolnaftate] were 136% and 106%.
On to `Cc1ccc(O)c([C@H](CCN(C(C)C)C(C)C)c2ccccc2)c1` [Tolterodine tartrate], for which the remaining activity at 10 µM in assay [1] was 68%; in assay [2] (0.5 h, read-out: %NTCP binding, Prestwick library screen, Myrcludex B-FITC binding, 10 µM drug) it was 61.3%.
Consider `CNCC[C@@H](Oc1ccccc1C)c1ccccc1` [Tomoxetine hydrochloride], for which the remaining activity at 10 µM in assay [1] turned out to be 154%; in assay [2] (0.5 h, read-out: %NTCP binding), 69.9%.
As for `CC1(C)O[C@@H]2[C@@H](CO[C@@]3(COS(N)(=O)=O)OC(C)(C)O[C@@H]23)O1` [Topiramate], the remaining activity at 10 µM in assay [1] stood at 75.3%; in assay [2] (0.5 h, read-out: %NTCP binding), 79.5%.
Regarding `CC[C@@]1(O)C(=O)OCc2c1cc1n(c2=O)Cc2cc3c(CN(C)C)c(O)ccc3nc2-1` [Topotecan], the remaining activity at 10 µM came out at 107% in assay [1] and 96.1% in assay [2] (0.5 h, read-out: %NTCP binding).
As for `CN(C)CCOc1ccc(/C(=C(/CCCl)c2ccccc2)c2ccccc2)cc1` [Toremifene], the remaining activity at 10 µM was found to be 64.7% in assay [1] and 76.7% in assay [2] (0.5 h, read-out: %NTCP binding).
Taken in the same sequence, the figures for `Cc1cccc(Nc2ccncc2S(=O)(=O)NC(=O)NC(C)C)c1` [Torsemide] were 47% and 84.6%.
Consider `Cl.NC1CCN(c2nc3c(cc2F)c(=O)c(C(=O)O)cn3-c2ccc(F)cc2F)C1` (stereo not shown) [Tosufloxacin hydrochloride], for which, in assay [1] (Prestwick library screen, [14C]taurocholate uptake, 10 µM drug), the “%NTCP activity” value was 41.1377%. Also, in assay [2] (Prestwick library screen, Myrcludex B-FITC binding, 10 µM drug), the “%NTCP binding” value amounted to 76.2932%.
Regarding `COc1cccc(C2(O)CCCCC2CN(C)C)c1.Cl` (stereo not shown) [Tramadol hydrochloride], in assay [1], the “%NTCP activity” value is recorded as 92.4969%. Also, in assay [2] (setting [3]), the “%NTCP binding” value is recorded as 75.3752%.
With `O=c1n(CCCN2CCN(c3cccc(Cl)c3)CC2)nc2ccccn12` [Trazodone hydrochloride], the remaining activity at 10 µM in assay [1] amounted to 71.4%; in assay [2] (0.5 h, read-out: %NTCP binding) it was 73.7%.

Values taken from article PMC5681660, “Reduced hepatitis B and D viral entry using clinically applied drugs as novel inhibitors of the bile acid transporter NTCP” (Scientific Reports, 2017).
